Some of the results follow.
B1: PhoQ; a variant is named by its letters at X, in order, P23837 (parent)
chain: MKKLLRLFFPLSLRVRFLLATAAVVLVLSLAYGMVALIGYSVSFDKTTFRLLRGESNLFYTLAKWENNKLHVELPENIDKQSPTMTLIYDENGQLLWAQRDVPWLMKMIQPDWLKSNGFHEIEADVNDTSLLLSGDHSIQQQLQEVREDDDDAEMTHSVAVNVYPATSRMPKLTIVVVDTIPVELKSSYMVWSWFIYVLSANLLLVIPLLWVAAWWSLRPIEALAKEVRELEEHNRELLNPATTRELTSLVRNLNRLLKSERERYDKYRTTLTDLTHSLKTPLXXLQXXLRSLRSEKMSVSDAEPVMLEQISRISQQIGYYLHRASMRGGTLLSRELHPVAPLLDNLTSALNKVYQRKGVNISLDISPEISFVGEQNDFVEVMGNVLDNACKYCLEFVEISARQTDEHLYIVVEDDGPGIPLSKREVIFDRGQRVDTLRPGQGVGLAVAREITEQYEGKIVAGESMLGGARMEVIFGRQHSAPKDE

Variants of: B1
Assay: enrichment ratio after two sorts for PhoP signalling (ratio (wild type AVST 3.29)); higher = more functional
Conditions: with PhoP (E. coli)

Row | Variant | enrichment ratio
1 | SHFI | ≤ 0.25
2 | IDRI | ≤ 0.25
3 | NGVQ | ≤ 0.25
4 | VIHI | ≤ 0.25
5 | LKLH | ≤ 0.25
6 | PMGY | ≤ 0.25
7 | QNQD | ≤ 0.25
8 | QTWQ | ≤ 0.25
9 | LMSV | ≤ 0.25
10 | YLLH | ≤ 0.25
11 | CICK | ≤ 0.25
12 | DGDW | ≤ 0.25
13 | YCPE | ≤ 0.25
14 | WAVA | ≤ 0.25
15 | KNVQ | ≤ 0.25
16 | NHGR | ≤ 0.25
17 | YGKY | ≤ 0.25
18 | YMEF | ≤ 0.25
19 | TMIM | ≤ 0.25
20 | WKKC | ≤ 0.25
21 | SMFE | ≤ 0.25
22 | VQFA | ≤ 0.25
23 | KQFR | ≤ 0.25
24 | MIWW | ≤ 0.25
25 | WMIP | ≤ 0.25
26 | PVMG | ≤ 0.25

Row | Variant | enrichment ratio
27 | KGMP | ≤ 0.25
28 | QICE | ≤ 0.25
29 | YHDT | ≤ 0.25
30 | ASQI | 0.709
31 | LFPW | ≤ 0.25
32 | QFKC | ≤ 0.25
33 | QAGW | ≤ 0.25
34 | ALYC | 0.281
35 | AHIW | ≤ 0.25
36 | QFAS | ≤ 0.25
37 | INSC | ≤ 0.25
38 | YGRT | ≤ 0.25
39 | EMPS | ≤ 0.25
40 | LRMI | ≤ 0.25
41 | FMKR | ≤ 0.25
42 | FTAY | ≤ 0.25
43 | GGTR | ≤ 0.25
44 | QNCM | ≤ 0.25
45 | MGMW | ≤ 0.25
46 | ICAC | ≤ 0.25
47 | CFLR | ≤ 0.25
48 | DVID | ≤ 0.25
49 | VYAT | ≤ 0.25
50 | IHMP | ≤ 0.25
51 | HRYE | ≤ 0.25
52 | WKYC | ≤ 0.25

Row | Variant | enrichment ratio
53 | DYML | ≤ 0.25
54 | RPVF | ≤ 0.25
55 | FRDS | ≤ 0.25
56 | NEMA | ≤ 0.25
57 | FRKC | ≤ 0.25
58 | RHGW | ≤ 0.25
59 | KKLG | ≤ 0.25
60 | NHMS | ≤ 0.25
61 | QERF | ≤ 0.25
62 | DVNS | ≤ 0.25
63 | WKLL | ≤ 0.25
64 | WIMY | ≤ 0.25
65 | GWMR | ≤ 0.25
66 | KFNK | ≤ 0.25
67 | WKLC | ≤ 0.25
68 | MFLE | ≤ 0.25
69 | LASN | ≤ 0.25
70 | LANK | ≤ 0.25
71 | NAFP | ≤ 0.25
72 | VSRQ | ≤ 0.25
73 | NENS | ≤ 0.25
74 | YCVT | ≤ 0.25
75 | HSNA | ≤ 0.25
76 | RNDT | ≤ 0.25
77 | PKEG | ≤ 0.25
78 | MNNQ | ≤ 0.25

Row | Variant | enrichment ratio
79 | SLDT | ≤ 0.25
80 | SMEH | ≤ 0.25
81 | EFPV | ≤ 0.25
82 | CPDM | ≤ 0.25
83 | WNIP | ≤ 0.25
84 | WQQG | ≤ 0.25
85 | SQWL | ≤ 0.25
86 | SARE | ≤ 0.25
87 | HFEY | ≤ 0.25
88 | NFGR | ≤ 0.25
89 | QFSI | ≤ 0.25
90 | TMQV | 3.17
91 | MPNN | ≤ 0.25
92 | GSLW | ≤ 0.25
93 | PPNA | ≤ 0.25
94 | ICCL | ≤ 0.25
95 | RLTF | ≤ 0.25
96 | IEHN | ≤ 0.25
97 | FDLT | ≤ 0.25
98 | MCKT | ≤ 0.25
99 | GYLQ | ≤ 0.25
100 | HFHQ | ≤ 0.25
101 | RYDH | ≤ 0.25
102 | NDNT | ≤ 0.25
103 | QCYL | 3.96
104 | GSPH | ≤ 0.25

Row | Variant | enrichment ratio
105 | CTSL | 11.6
106 | KMPK | ≤ 0.25
107 | GTRF | ≤ 0.25
108 | MLRM | ≤ 0.25
109 | LGCH | ≤ 0.25
110 | FDDR | ≤ 0.25
111 | YRGR | ≤ 0.25
112 | DPVR | ≤ 0.25
113 | YPPY | ≤ 0.25
114 | EVCR | ≤ 0.25
115 | LPME | ≤ 0.25
116 | DTEN | ≤ 0.25
117 | VKLN | ≤ 0.25
118 | NEVI | 4.98
119 | ACIC | 9.45
120 | FIIC | ≤ 0.25
121 | HMYY | ≤ 0.25
122 | QADF | 3.05
123 | AHGR | ≤ 0.25
124 | DGEM | ≤ 0.25
125 | NRYH | ≤ 0.25
126 | PVCS | ≤ 0.25
127 | IVWD | ≤ 0.25
128 | IITD | ≤ 0.25
129 | RNST | ≤ 0.25
130 | WESN | ≤ 0.25

Row | Variant | enrichment ratio
131 | TNWG | ≤ 0.25
132 | DQAG | ≤ 0.25
133 | IKCK | ≤ 0.25
134 | GRVE | ≤ 0.25
135 | DYLM | ≤ 0.25
136 | ENVW | ≤ 0.25
137 | HSHV | ≤ 0.25
138 | YCAA | ≤ 0.25
139 | NNFK | ≤ 0.25
140 | DPTR | ≤ 0.25
141 | PHHR | ≤ 0.25
142 | VCEF | ≤ 0.25
143 | IMTK | ≤ 0.25
144 | KAHD | ≤ 0.25
145 | RYDC | ≤ 0.25
146 | IYAG | ≤ 0.25
147 | HNTA | ≤ 0.25
148 | PPCQ | ≤ 0.25
149 | PNTK | ≤ 0.25
150 | HPMY | ≤ 0.25
151 | RQNR | ≤ 0.25
152 | GARK | ≤ 0.25
153 | KTLT | ≤ 0.25
